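1) Cells in 96-well plates. 2) Compound, 48 h, 5 concentrations. 3) Linear interpolation between surrounding doses. 4) Unreached endpoint = highest concentration. Here, GI50 denotes the concentration required for 50% inhibition of growth.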 For part of its entries the source gives two or more results. The other results are left out here. An entry can have further records. For some assays here: A record mostly stands for its own series of concentrations, not given here; some values may only mark the edge of a range.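 TGI: concentration producing complete growth inhibition.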 For some assays here: The values listed for one entry are repeats in other runs, samples, wells, individuals or studies. Brackets tell where a record comes from. A, B and so on number the origins entry by entry.
Tests used:
Experiment in all cases: NCI tumour cell line growth inhibition, 48 h
[1] = tested on: SW-620 colon
[2] = tested on: SNB-19 CNS
[3] = tested on: SR leukemia
[4] = tested on: DU-145 prostate
[5] = tested on: TK-10 renal
[6] = tested on: HT29 colon
[7] = tested on: SF-268 CNS
[8] = tested on: NCI-H23 lung
[9] = tested on: OVCAR-4 ovarian
[10] = tested on: UACC-257 melanoma
[11] = tested on: A549 NSCLC
[12] = tested on: CCRF-CEM leukemia
[13] = tested on: PC-3 prostate
[14] = tested on: NCI-H460 lung
[15] = tested on: SK-MEL-5 melanoma
[16] = tested on: MCF7 breast
[17] = tested on: NCI-H522 lung
[18] = tested on: M14 melanoma
[19] = tested on: UACC-62 melanoma

What does the source list for `O=[N+]([O-])c1cccc2nc3ccccc3c(NCCNCCO)c12`?
TGI [1]: 315 nM and 10.4 µM; TGI [2]: 1.04 µM and 69.4 nM; TGI [3]: 159 nM and > 100 µM; TGI [4]: 12.7 nM and 12.4 µM; TGI [5]: 582 nM and 41 nM; TGI [6]: 26.2 nM and 421 nM; TGI [7]: 6.55 nM and 103 nM

How did the TGI [8] turn out when `CCN(CC)CCCC(C)Nc1cnc(C(=O)Nc2cc(F)cc3cccnc23)cn1` (stereo not drawn) was run?
The TGI was 26.6 µM [sample A, 1 test] and 1.94 µM [sample B, mean of 2 tests].

And the TGI [3]?
Its TGI is 7.58 µM [sample A, 1 test] and > 100 µM [sample B, mean of 2 tests].

And the TGI [9]?
Its TGI is 13.2 µM [sample A, 1 test] and 1.3 µM [sample B, mean of 2 tests].

With `Cc1c(CN2CCC(Nc3ncnc4sc(CC(F)(F)F)cc34)CC2)ccc2c1cc(C#N)n2Cc1cn[nH]c1` as the compound, how does the TGI [10] read?
The TGI was 4.68 µM [sample A, 1 test] and > 100 µM [sample B, 1 test].

Which GI50 [11] does the source give for `CCOC(=O)C(Cc1c[nH]c2cc([N+](=O)[O-])ccc12)(NC(C)=O)C(=O)OCC` here?
Its GI50 is 58.9 µM [1 test] and > 1 mM [mean of 2 tests].

What about the GI50 [12] of the same compound?
The GI50 was 17.8 µM [1 test] and > 1 mM [mean of 2 tests].

And the TGI [12]?
The TGI was 83 µM [1 test] and > 1 mM [mean of 2 tests].

What about the GI50 [13] of the same compound?
The GI50 was 27.8 µM [1 test] and > 1 mM [mean of 2 tests].

And the GI50 [10]?
Its GI50 is 23.8 µM [1 test] and > 1 mM [mean of 2 tests].

What about the GI50 [14] of the same compound?
The GI50 was 93.3 µM [1 test] and > 1 mM [mean of 2 tests].

And the GI50 [15]?
Its GI50 is 11.1 µM [1 test] and > 1 mM [mean of 2 tests].

What about the TGI [15] of the same compound?
The TGI was 37.9 µM [1 test] and > 1 mM [mean of 2 tests].

What about the GI50 [16] of the same compound?
Its GI50 is 38.2 µM [1 test] and > 1 mM [mean of 2 tests].

And the GI50 [17]?
The GI50 was 59.6 µM and > 1 mM.

And the TGI [18]?
Its TGI is 21.7 µM [1 test] and > 1 mM [mean of 2 tests].

And the GI50 [19]?
Its GI50 is 63.7 µM [1 test] and > 741 µM [mean of 2 tests].

— PubChem BioAssay (NCI)
